Some of the results follow.

The assay has as its target T1, OsWOX13 (Oryza sativa, UniProt Q5QMM3 1-267).
T1 sequence: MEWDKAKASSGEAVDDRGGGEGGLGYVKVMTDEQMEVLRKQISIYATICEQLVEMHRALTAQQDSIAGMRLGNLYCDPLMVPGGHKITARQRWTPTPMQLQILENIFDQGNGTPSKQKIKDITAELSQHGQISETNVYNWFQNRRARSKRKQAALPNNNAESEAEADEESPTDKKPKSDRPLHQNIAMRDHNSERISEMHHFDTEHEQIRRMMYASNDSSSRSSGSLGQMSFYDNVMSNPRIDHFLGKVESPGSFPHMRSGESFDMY
The experiment in a line: protein-binding microarray (RPBM); PBS, 2% BSA, 51.3 ng/ul salmon testes DNA, 50 uM zinc acetate, 200 nM TF, 25 C, 1 h; high values mean tight binding. Conditions: protein: recombinant; tags: N-terminal polyhistidine and DsRed monomer fusion (pET32a); label: CyDye5-dUTP incorporated in the synthesized complementary strand; 3' TTTTT single-stranded linker to array surface; dsDNA, one strand shown. An outline of the steps:
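An Axon 4000B scanner gave the binding signal as per-feature fluorescence intensity in arbitrary units. This followed washing of a custom Agilent array that had been incubated for 1 h at 25 °C with 200 nM protein in PBS, 2% BSA, salmon testes DNA and 50 µM zinc acetate. The proteins were transcription factors fused at the N-terminus to polyhistidine and DsRed, expressed in E. coli BL21-CodonPlus and purified on Ni–NTA.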
“TGCTGATTGGTATGCATAGAGTATGTATGGAAACCTTGTGCGGAGTCACCTAGTGCAG”: the binding signal was 56600 fluorescence intensity (a.u.). In the case of “AACAAGATTGTGATTCATACATCTGCATCTTATTTTGTATCGGAGTCACCTAGTGCAG” it was 3650 fluorescence intensity (a.u.). For the sequence “GCCTTTGCGTGATTGGCGACGCCTCTCCTCCCTCCTTCCACGGAGTCACCTAGTGCAG”, the binding signal is 28200 fluorescence intensity (a.u.). In the case of “TATCTAAATGACATGACTCACTTAGATCCTAATAGGACATCGGAGTCACCTAGTGCAG” it was 7670 fluorescence intensity (a.u.); in that of “TTATTTTAGATTGGGTAAAATTGTGTTTGTTCACTTTGAACGGAGTCACCTAGTGCAG”, 12100 fluorescence intensity (a.u.); in that of “GTTAATAGATTTCGATAGGCAACTAAAACATTTGGATAGCCGGAGTCACCTAGTGCAG”, 29400 fluorescence intensity (a.u.).

In the case of “ATACATGCAAACACGATTGATTATTCAACAAATTGAGCCTCGGAGTCACCTAGTGCAG”, the binding signal was 12300 fluorescence intensity (a.u.). Then “GAATTGTAGTAATTAAATTAATTAAACCTACTAAACCCATCGGAGTCACCTAGTGCAG”, with 27700 fluorescence intensity (a.u.); and “AGCCTAATCATGTTCTTCTGGGTTAATTCATCGTATTGTTCGGAGTCACCTAGTGCAG”, with 8710 fluorescence intensity (a.u.). Then “AAATGATGAAGGATTGTAATTGGTTGATTTCGTCTTATTTCGGAGTCACCTAGTGCAG”, with 14300 fluorescence intensity (a.u.); and “TCGACAATCACAGTAAACCAATATAATAAATACTCCCTCCCGGAGTCACCTAGTGCAG”, with 6400 fluorescence intensity (a.u.). In the case of “ATGAATAAAATTTATTCAATTAACTATGTGTTACATCGAGCGGAGTCACCTAGTGCAG”, the binding signal is 21500 fluorescence intensity (a.u.). Then “AATCCAATCAATCGCGATTCGATCATCTGTTCCACCCGCCCGGAGTCACCTAGTGCAG”, with 34400 fluorescence intensity (a.u.). In the case of “GACGTGACAATTAATTATTTAACACTCGCTTTCTATAATACGGAGTCACCTAGTGCAG” it was 19000 fluorescence intensity (a.u.); in that of “CAGGTTGATTGCTTTATATTTTCCAGTGGATTAGTGCAATCGGAGTCACCTAGTGCAG”, 49300 fluorescence intensity (a.u.); in that of “ATTAATAGACAGCACCATAAAGATATGCACGATAAGGTTTCGGAGTCACCTAGTGCAG”, 27800 fluorescence intensity (a.u.).

For “TGTGAATTGATTGAAGTCTCAAGGATTAGTATAGTTCTTGCGGAGTCACCTAGTGCAG”, the binding signal is 43000 fluorescence intensity (a.u.). Then “CACCAATCACATTAATATGATAATTCATTCACCTACCTCGCGGAGTCACCTAGTGCAG”, with 39700 fluorescence intensity (a.u.); and “TTTAAATTTATAATAATTAAAACTCAATTAATCATACGTTCGGAGTCACCTAGTGCAG”, with 20900 fluorescence intensity (a.u.); and “AATGATAATCATGTTTGATTTTAAAATCTCAATGACAATACGGAGTCACCTAGTGCAG”, with 20900 fluorescence intensity (a.u.). Then “CTGCAAATTTGCCTGGTAATTAATTTGTCGAAAATGGTTACGGAGTCACCTAGTGCAG”, with 38400 fluorescence intensity (a.u.); and “ACACCAATTACCACGAAACCACAACCAGAATCACCCAACGCGGAGTCACCTAGTGCAG”, with 6880 fluorescence intensity (a.u.); and “AGCTTAAACAAATCTAAATTCCAATCTGTTCGTAAACGTTCGGAGTCACCTAGTGCAG”, with 5280 fluorescence intensity (a.u.).

As to “CAGGATAGATTTGTTGCATGCAATTGTGTGGCGCGGCAATCGGAGTCACCTAGTGCAG”, the binding signal is 17800 fluorescence intensity (a.u.).

On to “CATATTTTGTCAATCTTATAGTCTAGTTATATAATAGCTCCGGAGTCACCTAGTGCAG”, for which the binding signal is 8760 fluorescence intensity (a.u.). In the case of “ACCCAGATGATGATCAACTGCAATGCATATAACTAGTAACCGGAGTCACCTAGTGCAG” it was 3180 fluorescence intensity (a.u.); in that of “ATGAGTCAATTTGTGTGACCTGACAAGTCTCCTAATGCACCGGAGTCACCTAGTGCAG”, 6270 fluorescence intensity (a.u.); in that of “CAACCACAGATCAATCAAATGAAAGTATGTTCATATGCGCCGGAGTCACCTAGTGCAG”, 5680 fluorescence intensity (a.u.). In the case of “GATATGCTCGTAATTACTTTAAAAGTAATTTTATTTTAAACGGAGTCACCTAGTGCAG”, the binding signal was 4180 fluorescence intensity (a.u.). Turning to “TTCTAATATATTGATGTTAATGAATCTAGACATACATATCCGGAGTCACCTAGTGCAG”, the binding signal was 6130 fluorescence intensity (a.u.). Take “GAAATAAATCACATGAATTTTATAGGAATCACTCTTGGGTCGGAGTCACCTAGTGCAG”: the binding signal was 4140 fluorescence intensity (a.u.). Then “ATCGAAATGATAGATATAAGTACCGCAAAGATGAAGCTACCGGAGTCACCTAGTGCAG”, with 4060 fluorescence intensity (a.u.). In the case of “ATTAATTGATGCTTTGCTTGATTACTTGAGTCAGATCCAGCGGAGTCACCTAGTGCAG” it was 63200 fluorescence intensity (a.u.); in that of “TTAACTTGCCAATCAAACATGTAGGCAACTGCTGGACTCACGGAGTCACCTAGTGCAG”, 23400 fluorescence intensity (a.u.); in that of “GATTTAATTATAAGGGTCAGGCGTGCACATGCAGCACCCGCGGAGTCACCTAGTGCAG”, 3880 fluorescence intensity (a.u.). In the case of “CAGTGACAGTGACTGTACTCTTGTACTCTTACAACCGCCGCGGAGTCACCTAGTGCAG” it was 5660 fluorescence intensity (a.u.). Turning to “GTATTAATTTAACATATGCTTTAATTTCCTATGTATTAGACGGAGTCACCTAGTGCAG”, the binding signal was 16400 fluorescence intensity (a.u.). In the case of “TTGAATTGGTGATATAAATCCGTGCAAGATTCAAGAGCCACGGAGTCACCTAGTGCAG” it was 3510 fluorescence intensity (a.u.); in that of “GCATTGATATGAACCATTGATTTGTTATCATGCAGTGCTACGGAGTCACCTAGTGCAG”, 26400 fluorescence intensity (a.u.); in that of “AAATAGACAGTAGATAATATGTGGGAGGATAAATGACACACGGAGTCACCTAGTGCAG”, 4800 fluorescence intensity (a.u.). “ATGTTAAATAGATATATTTAGATTCATAATATTAGAACGTCGGAGTCACCTAGTGCAG”: the binding signal was 12300 fluorescence intensity (a.u.).

Turning to “TTAAATAATTGTTCGTGCTTCTGGCGTAAAGTATTGAAGTCGGAGTCACCTAGTGCAG”, the binding signal was 12200 fluorescence intensity (a.u.).

These data come from publication PMC7819943, “Rice protein-binding microarrays: a tool to detect cis-acting elements near promoter regions in rice”.
